Assay results: patent US9650414B1, “Dual-action EP4 agonist—bisphosphonate conjugates and uses thereof” (Simon Fraser University, priority 2014, dated 2017)

Assays:
[1] = 100 uM, fresh rat serum, 37 C, 0 hour
[2] = in vitro; settings: rat, plasma, 37 C
[3] = in vitro; settings: rat, serum, 37 C
[4] = 100 uM, fresh rat plasma, 37 C, 0 hour
[5] = remaining compound in rat plasma (control), 24 hour control, inactive rat plasma (56 C for 2.0 hour)

SMILES	remaining compound in rat serum [1]	remaining at 24 h, 100 uM [2, 5]	remaining at 24 h, 100 uM ([3]; remaining compound in rat serum (control), 24 hour control, inactive rat serum (56 C for 2.0 hour))	remaining at 1 h, 100 uM ([3]; remaining compound in rat serum, fresh rat serum, 1 hour)	remaining at 2 h, 100 uM ([3]; remaining compound in rat serum, fresh rat serum, 2 hour)	remaining at 4 h, 100 uM ([3]; remaining compound in rat serum, fresh rat serum, 4 hour)	remaining at 24 h, 100 uM ([3]; remaining compound in rat serum, fresh rat serum, 24 hour)	remaining at 1 h, 100 uM ([2]; remaining compound in rat plasma, fresh rat plasma, 1 hour)	remaining at 2 h, 100 uM ([2]; remaining compound in rat plasma, fresh rat plasma, 2 hour)	remaining at 4 h, 100 uM ([2]; remaining compound in rat plasma, fresh rat plasma, 4 hour)	remaining at 24 h, 100 uM ([2]; remaining compound in rat plasma, fresh rat plasma, 24 hour)	remaining compound in rat plasma [4]
N=C(N)NCCC[C@H](NC(=O)[C@@H]1CCCN1C(=O)OCc1ccccc1)C(=O)Nc1ccc(COC(=O)NCCCC(O)(P(=O)(O)O)P(=O)(O)O)cc1 [Compound 6, (4-((((4-((S)-2-((S)-1-((benzyloxy)carbonyl)pyrrolidine-2-carboxamido)-5-guanidinopentanamido)benzyl)oxy)carbonyl)amino)-1-hydroxybutane-1,1-diyl)bis(phosphonic acid)]	93%	86%										
CC(C)C[C@H](NC(=O)OCc1ccccc1)C(=O)N[C@@H](CCCNC(=N)N)C(=O)Nc1ccc(COC(=O)NCCCC(O)(P(=O)(O)O)P(=O)(O)O)cc1 [Compound 7]	99%											
N=C(N)NCCC[C@H](NC(=O)[C@@H]1CCCN1C(=O)CNC(=O)OCc1ccccc1)C(=O)Nc1ccc(COC(=O)NCCCC(O)(P(=O)(O)O)P(=O)(O)O)cc1 [Compound 8, (4-((((4-((S)-2-((S)-1-(((benzyloxy)carbonyl)glycyl)pyrrolidine-2-carboxamido)-5-guanidinopentanamido)benzyl)oxy)carbonyl)amino)-1-hydroxybutane-1,1-diyl)bis(phosphonic acid)]	91%	49%	93%	82%	72%	68%	64%	51%	38%	17%	16%	95%
